Laboratory results reported in PubChem BioAssay AID485364 (National Center for Advancing Translational Sciences (NCATS), 2010).
Out of some 360,000 compounds screened, about 11,000 (3.1%) were called active. Inconclusive means that the source gave no clear call. Such entries were picked first, then a sample of the others. The call rests on the fitted dose curve; in most records, active means well fitted inhibition curve with a large enough effect; inconclusive means small, poorly fitted or top-dose-only effect; inactive means no such curve, though single readings can be large or run the other way. No potency is given beside an inconclusive call; the fits are too rough.

target: Schistosoma mansoni thioredoxin glutathione reductase (TGR) (UniProt Q962Y6); test: qHTS Assay for the Inhibitors of Schistosoma Mansoni Peroxiredoxins; details: purified TGR, DTNB reduction, TNB absorbance 405 nm; series mostly up to 114 µM; further: nearly all actives have a fitted effect of over 60% in size
How it was run: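 First, TGR (20 nM dispensed) and NADPH were mixed with compound. Second, a 15 min room-temperature incubation followed. Third, further NADPH and then DTNB were added to start the reaction. Finally, TNB absorbance was monitored kinetically.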
Potency means the concentration at half of the fitted maximal effect; tags describe the fitted curve by direction and shape.

Row | SMILES | Potency
1 | COc1ccc(OC)c(S(=O)(=O)N2CCN(c3c(C)cccc3C)CC2)c1 | inconclusive [inhibitor, partial curve]
2 | COCCCNC(=S)NC(=O)c1ccc([N+](=O)[O-])cc1 | inconclusive [inhibitor, partial curve, poor fit]
3 | COc1ccc(CNC(=O)c2ccc(CS(=O)(=O)Cc3ccccc3F)o2)cc1 | inconclusive [inhibitor, full curve]
4 | O=C(Cn1c(=O)n(Cc2ccc(F)cc2)c(=O)c2ccccc21)NCC1CCCO1 (stereo not given) | inconclusive [inhibitor, single point]
5 | CCOC(=O)c1ccc(N2C(=O)c3n[nH]c(-c4ccco4)c3C2c2ccc(F)cc2)cc1 (stereo not given) | inconclusive [inhibitor, partial curve]
6 | CCOC(=O)C1=C(C)OC(N)=C(C#N)C1c1ccoc1 (stereo not given) | active: 31.6 µM
7 | CN(CC(=O)Nc1ccc(OC(F)(F)F)cc1)C(=O)/C=C/c1cc2c(cc1[N+](=O)[O-])OCO2 | inconclusive [inhibitor, full curve, poor fit]
8 | CC(C)OCc1cc(CN2CCN(c3ccccc3)CC2)c(O)c2ncccc12 | inconclusive [inhibitor, partial curve]
9 | O=C1C(=O)N(CCN2CCOCC2)C(c2ccccn2)/C1=C(/O)c1ccccc1 (stereo not given) | inconclusive [inhibitor, single point]
10 | Clc1ccc(-c2csc(Nc3ccccc3)[n+]2Cc2ccco2)c(Cl)c1 | inconclusive [inhibitor, partial curve]
11 | COC(=O)CCCC1=CC2=CC(=O)C(C)(OC(=O)c3cccs3)C(=O)C2=CN1c1cccc(C#N)c1 (stereo not given) | inconclusive [inhibitor, partial curve]
12 | CN1CCN(c2nc3c(c(=O)n(C)c(=O)n3C)n2Cc2ccccc2)CC1 | inconclusive [inhibitor, partial curve]
13 | O=C(c1ccco1)N1CCN(C(c2ccccc2Cl)c2nnnn2Cc2cccs2)CC1 (stereo not given) | inconclusive [inhibitor, partial curve]
14 | COc1cc2c(cc1OC)-c1c3c(cc4c1[C@@H](C2)N(C)CC4)OCO3 | inactive
15 | Cc1ccc2nc(SCC(=O)Nc3cccc(S(=O)(=O)N(C)C)c3)[nH]c2c1 | inactive
16 | C=CCn1c(C)c(C=C2C(=O)NC(=O)NC2=O)c2ccccc21 | inconclusive [inhibitor, full curve]
17 | Cc1cc(NC(=S)Nc2cccnc2)ccc1Br | active: 17.8 µM
18 | COc1ccc(N=Cc2ccc(CNS(=O)(=O)c3ccc(Cl)cc3)o2)cc1 | inactive
19 | CC(C)C1Cc2c(C#N)c(N)n(C)c(=S)c2CO1 (stereo not given) | inconclusive [inhibitor, single point]
20 | Cc1c(CN(C)C(=O)c2cc(-c3ccccc3)nc3ccc(Br)cc23)cnn1C | inactive
21 | Cc1ccc(NC(=O)c2ccc(OC(=O)C(C)Oc3ccc(Cl)cc3C)cc2)cc1 (stereo not given) | inactive
22 | Cn1c(SCC(=O)NC2CC2)nnc1-c1ccc(Cl)cc1 | inactive
23 | Cc1occc1C(=O)NNC(=O)Nc1ccc(F)cc1F | inconclusive [inhibitor, partial curve]
24 | CCCCn1c(SCC(=O)Nc2oc(C)c3c(C)n[nH]c(=O)c23)nc2cc(S(N)(=O)=O)ccc21 | inconclusive [inhibitor, partial curve]

Row | SMILES | Potency
25 | COC(=O)c1ccc(CO/N=C/c2ccccc2OC)cc1 | inconclusive [inhibitor, single point]
26 | O=C(NCCc1ccccc1)C(=O)Nc1nccs1 | inactive
27 | N#Cc1ccc2c(c1)C[C@]1(c3ccsc3)Oc3c(c(=O)oc4ccccc34)C2O1 | active: 7.08 µM
28 | CC(=O)N1CCN(C(=O)c2ccc(S(=O)(=O)Nc3cccc(C(F)(F)F)c3)cc2)CC1 | inactive
29 | COCCn1c(=NC(=O)/C=C/c2cccs2)sc2cc(NC(C)=O)ccc21 | inactive
30 | C=CCn1c(-c2ccccc2OC)n[nH]c1=S | inconclusive [inhibitor, partial curve, poor fit]
31 | CCCCn1c(N)c(N(CC)C(=O)CSc2nnc(-c3ccco3)n2CC)c(=O)[nH]c1=O | inconclusive [inhibitor, partial curve]
32 | O=c1cc(N2CCN(Cc3ccccc3)CC2)[nH]c(=O)n1-c1ccc(Br)cc1 | inconclusive [inhibitor, full curve]
33 | COc1cccc2cc(C(=O)NCc3ccc(C)cc3)c(=N)oc12 | inconclusive [inhibitor, full curve, poor fit]
34 | O=c1c2c(-c3ccco3)csc2nc(SCc2cn3cccnc3n2)n1-c1ccccc1 | inconclusive [inhibitor, partial curve]
35 | COc1ccccc1CCNCc1ccc(OC)c(OCc2ccccc2)c1 | inconclusive [inhibitor, partial curve]
36 | Cc1ccc(C)c(NC(=S)Nc2cccnc2)c1 | inconclusive [inhibitor, partial curve]
37 | O=C1CC(Nc2ccccc2)C(=O)N1Cc1ccccc1 (stereo not given) | inconclusive [inhibitor, partial curve]
38 | CC(C)(C)NC(=O)CCN(/N=C/c1ccc([N+](=O)[O-])o1)C1=NS(=O)(=O)c2ccccc21 | inconclusive [inhibitor, full curve, poor fit]
39 | Cc1noc(NC(=O)c2c(-c3c(Cl)cccc3Cl)noc2C)c1[N+](=O)[O-] | inactive
40 | CCOC(=O)c1ccc(CNC(=O)C2CCC(=O)N(CCc3ccccc3)C2)o1 (stereo not given) | inconclusive [inhibitor, full curve]
41 | Cc1cccc(N2C(=O)NC(=O)/C(=C\c3ccc(N4CCOCC4)cc3)C2=O)c1 | inconclusive [inhibitor, full curve, poor fit]
42 | Oc1ccc2ccccc2c1CNc1ccc(Br)cc1 | active: 0.631 µM
43 | Cc1ccccc1-c1nc(CS(=O)CC(=O)NCc2ccccn2)c(C)o1 (stereo not given) | inconclusive [inhibitor, partial curve]
44 | COC(=O)[C@@]12CCCCN1[C@H](c1ccc(-c3ccc(C(C)=O)cc3)c(OC)c1)[C@@H]1C(=O)N(C)C(=O)[C@@H]12 | inconclusive [inhibitor, full curve, poor fit]
45 | COc1cccc2cc(C(=O)N3CCCc4ccccc43)oc12 | inconclusive [inhibitor, partial curve]
46 | CCOC(=O)c1oc2nc3c(cc2c1N)CCCC3 | inactive
47 | Cc1cccc(CSc2ncnc3ccccc23)c1 | inactive
48 | COc1cc(C2Nc3cccc4cccc(c34)N2)ccc1O | active: 3.98 µM

Row | SMILES | Potency
49 | CCn1cc(C(=O)NCc2ccco2)c(=O)c2cc(S(=O)(=O)N3CCCCCC3)ccc21 | inconclusive [inhibitor, partial curve]
50 | Cc1ccc(C)c(N2CCN(C(=O)CCNS(=O)(=O)c3ccc4c(c3)oc(=O)n4C)CC2)c1 | inactive
51 | O=c1c2ccccc2nc(CNc2ccccc2)n1-c1ccccc1 | inactive
52 | Cn1cc(CN2CCC(C(=O)N3CCCCC3)CC2)c(-c2ccccc2F)n1 | inconclusive [inhibitor, full curve, poor fit]
53 | C[C@H]1CN=C2N(CCNC(=O)CCC3CCCCC3)[C@H](Cc3ccc(O)cc3)CN21 | inactive
54 | NC1=NC(=O)CC(C(=O)Nc2cccc3ccccc23)S1 (stereo not given) | inconclusive [inhibitor, partial curve, poor fit]
55 | O=C(CSc1nnc(-c2ccco2)n1Cc1ccccc1)c1ccccc1 | active: 44.7 µM
56 | NC(=O)C1CC(=O)N(Cc2ccc3c(c2)OCO3)C(=Nc2ccccc2)S1 (stereo not given) | inactive
57 | Cc1[nH][nH]c(=O)c1C(c1ccccc1[N+](=O)[O-])C(C#N)C#N (stereo not given) | inconclusive [inhibitor, full curve]
58 | CC(C)c1ccc(CN(C(=O)/C=C/c2ccco2)C2CCS(=O)(=O)C2)cc1 (stereo not given) | active: 3.55 µM
59 | Cc1ccsc1/C=C1\C(=O)NC(=S)N(C)C1=O | active: 25.1 µM
60 | O=C(CSCc1ccco1)N1CCc2ccccc21 | inconclusive [inhibitor, full curve]
61 | Cc1ccc(NCC(=O)N=Nc2c(O)[nH]c3ccc([N+](=O)[O-])cc23)cc1 | inactive
62 | COC(=O)c1cccc(-n2sc3ccccc3c2=O)c1 | inconclusive [inhibitor, single point]
63 | COc1ccc(C(CC(=O)N2CCCCC2)c2c(OC)cc(OC)c3ccc(=O)oc23)cc1 (stereo not given) | inactive
64 | CCN1CCN(C(=O)c2ccc3c(c2)N(Cc2c(F)cccc2Cl)C(=O)c2ccccc2S3)CC1 | inactive
65 | Cc1ccc(S(=O)(=O)CC(C)(O)C(=O)Nc2cccc(C(F)(F)F)c2)cc1 (stereo not given) | inactive
66 | Cn1c(SCC(=O)OCc2ccccc2)nnc1-c1ccco1 | inconclusive [inhibitor, partial curve]
67 | CCOC(=O)C1=C(COC(=O)/C=C/c2ccccc2)NC(=O)NC1C (stereo not given) | inactive
68 | O=C(Nc1ccc(O)cc1C(=O)O)c1ccc2c(c1)C(=O)N(Cc1ccco1)C2=O | inconclusive [inhibitor, partial curve, poor fit]
69 | O=C(CC1N=C2c3ccccc3N=C(SCc3ccc(F)cc3)N2C1=O)NCc1ccco1 (stereo not given) | inconclusive [inhibitor, partial curve]
70 | O=C(COC(=O)CCOc1ccccc1)NCCC1=CCCCC1 | inactive
